# Measured values taken from PubChem BioAssay (NCATS).
# The inconclusive results got no clear call from the source; some entries with a clear call stand among them for comparison. A potency beside an inconclusive call is a rough fit, not a confirmed value. Calls of active or inactive are those of the source. Calls come from the whole dose curve; as a rule, active = well fitted curve in the direction sought with a large enough effect; inconclusive = small, poorly fitted or top-dose-only effect, or another doubt; inactive = no such curve, though single readings can be large; an effect the other way counts as inactive or inconclusive.
# Key:
# [1] = tested on: HeLa; assay: Primary qHTS to identify gynecologic anti-cancer compounds using libraries of approved drugs and bioactive compounds (AID 1345084); conditions: Gynecologic cancer cell panel viability, ATPlite luminescence, 48 h; series mostly up to 57.5 µM; note: nearly all actives have a fitted effect of over 55% in size
# Procedure, shortened: (§1)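 48 h compound exposure at 37 C, 5% CO2; five-point qHTS. ATPlite luminescence readout of cell ATP.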
# [2] = tested on: PA-1; assay: as above; conditions: Gynecologic cancer cell panel viability, ATPlite luminescence, 48 h; series mostly up to 57.5 µM
# Procedure, shortened: as §1
# [3] = Drug repurposing screens with cells derived from glioblastoma tumor samples (AID 1345199); conditions: GBM patient neurospheres viability, ATP luminescence, 48 h; Potency: tumour line A unless noted; series mostly up to 46 µM; note: nearly all actives have a fitted effect of over 40% in size
# Procedure, shortened: (§2)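 Primary testing used CD133+ neurospheres from four GBM patients, seven concentrations, 48 h exposure and ATP-based viability; confirmation added three slower-growing patient lines.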
# [4] = tested on: Hek293T; assay: Primary qHTS to identify gynecologic anti-cancer compounds using libraries of approved drugs and bioactive compounds (AID 1345084); conditions: Gynecologic cancer cell panel viability, ATPlite luminescence, 48 h, control line for the selectivity index; series mostly up to 57.5 µM; note: nearly all actives have a fitted effect of over 55% in size
# Procedure, shortened: as §1
# [5] = tested on: OV90; assay: as above; conditions: Gynecologic cancer cell panel viability, ATPlite luminescence, 48 h; series mostly up to 57.5 µM
# Procedure, shortened: as §1
# [6] = tested on: SKOV3; assay: as above; conditions: Gynecologic cancer cell panel viability, ATPlite luminescence, 48 h; activity change, negative = cytotoxicity: at 57.5 µM (top of the series) unless noted
# Procedure, shortened: as §1
# [7] = qHTS assay to identify inhibitors of the type 1 interferon - major histocompatibility complex class I in skeletal muscle: Counter screen cell viability and HiBit confirmation (AID 1347412); conditions: iHSKM muscle cells + IFN-b, HiBiT or CellTiter-Glo, 24 h; for activity change, negative = inhibition: at 45.9 µM (top of the series); for all read-outs here: nearly all actives have a fitted effect of over 60% in size
# Procedure, shortened: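 Duplicate plates, pinned identically: one read for HiBiT-tagged endogenous HLA-B luminescence, the other for ATP-content viability via CellTiter Glo. Cells were genome-engineered human myoblasts given 4 ng/ml IFN-b; compounds 12-pt, 1:3 from 46 uM final; 24 hr exposure.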
# [8] = tested on: Tov-21-G; assay: Primary qHTS to identify gynecologic anti-cancer compounds using libraries of approved drugs and bioactive compounds (AID 1345084); conditions: Gynecologic cancer cell panel viability, ATPlite luminescence, 48 h; series mostly up to 57.5 µM; note: nearly all actives have a fitted effect of over 55% in size
# Procedure, shortened: as §1
# [9] = tested on: JEG-3; assay: as above; conditions: Gynecologic cancer cell panel viability, ATPlite luminescence, 48 h; series mostly up to 57.5 µM
# Procedure, shortened: as §1
# [10] = tested on: astro; assay: Drug repurposing screens with cells derived from glioblastoma tumor samples (AID 1345199); conditions: viability, ATP luminescence, 48 h; activity, negative = cell killing: at 45.9 µM (top of the series); note: nearly all actives have a fitted effect of over 40% in size
# Procedure, shortened: as §2
# [11] = tested on: Tov112D; assay: Primary qHTS to identify gynecologic anti-cancer compounds using libraries of approved drugs and bioactive compounds (AID 1345084); conditions: Gynecologic cancer cell panel viability, ATPlite luminescence, 48 h; series mostly up to 57.5 µM; note: nearly all actives have a fitted effect of over 55% in size
# Procedure, shortened: as §1
# % is set by controls: 0 for no effect and ±100 for the full control effect; potency is the fitted concentration of half-maximal effect; tags give direction and shape of the fitted curve.
smiles,measurement,setting,value
CCOc1ccn(-c2ccc(F)cc2)c(=O)c1C(=O)Nc1ccc(Oc2ccnc(N)c2Cl)c(F)c1,Potency,[1],"inconclusive: 39.8 µM [cytotoxic, single point]"
same,Potency,[2],inactive
O=C1CCC(N2C(=O)c3ccccc3C2=O)C(=O)N1 (centres undefined),Potency,[1],inactive
same,Potency,[2],inactive
same,Potency,[3],inactive
Fc1ccc(CNc2ncnc3ccc(F)cc23)cc1,Potency,[4],"inconclusive: 10 µM [cytotoxic, partial curve]"
same,Potency,[5],"inconclusive: 11.2 µM [cytotoxic, partial curve, poor fit]"
same,Potency,[2],"inconclusive: 6.31 µM [cytotoxic, full curve]"
same,Potency,[6],"inconclusive: 8.91 µM [cytotoxic, full curve, poor fit]"
same,Potency,[7]; HiBiT,"inconclusive: 3.94 µM [inhibitor, full curve]"
same,"activity change, negative = inhibition",[7]; Viability,inactive: 2.98%
c1ccc([C@H]2CN3CCSC3=N2)cc1,Potency,[1],inactive
same,Potency,[8],inactive
NCC(=O)Nc1ccc(-n2nc(C(F)(F)F)cc2-c2ccc3c(ccc4ccccc43)c2)cc1,Potency,[1],"inconclusive: 7.94 µM [cytotoxic, full curve, poor fit]"
same,Potency,[4],"inconclusive: 7.08 µM [cytotoxic, full curve, poor fit]"
same,Potency,[9],"inconclusive: 8.91 µM [cytotoxic, partial curve]"
same,Potency,[2],"inconclusive: 6.31 µM [cytotoxic, full curve, poor fit]"
same,Potency,[6],inactive
same,Potency,[8],"inconclusive: 11.2 µM [cytotoxic, partial curve]"
CCN(CC)CCNC(=O)c1ccc2nc(-c3ccccc3)c(-c3ccc(CN4CCC(n5c(=O)[nH]c6ccccc65)CC4)cc3)nc2c1,Potency,[4],"inconclusive: 31.6 µM [cytotoxic, partial curve, poor fit]"
same,Potency,[9],"inconclusive: 31.6 µM [cytotoxic, single point]"
same,Potency,[5],"inconclusive: 35.5 µM [cytotoxic, single point]"
same,Potency,[6],"inconclusive: 39.8 µM [cytotoxic, single point]"
CC(c1cc2ccccc2s1)N(O)C(N)=O (centres undefined),Potency,[1],"inconclusive: 39.8 µM [cytotoxic, single point]"
same,Potency,[3],inactive
Cc1oc(=O)oc1CN1CCN(c2cc3c(cc2F)c(=O)c(C(=O)O)c2n3C(C)S2)CC1 (centres undefined),Potency,[4],inactive
same,Potency,[6],"inconclusive: 39.8 µM [rising, single point]"
same,Potency,[10],inactive
Cn1c(=O)c2c(ncn2CC(O)CO)n(C)c1=O (centres undefined),Potency,[1],inactive
same,Potency,[6],inactive
CCn1c(=O)c2c(nc(C=Cc3ccc(OC)c(OC)c3)n2C)n(CC)c1=O,Potency,[9],inactive
same,Potency,[6],inactive
O=c1[nH]cnc2[nH]ncc12,Potency,[4],"inconclusive: 39.8 µM [cytotoxic, single point]"
same,Potency,[10],inactive
CCOC(=O)[C@H](CCc1ccccc1)N[C@H]1CCc2ccccc2N(CC(=O)O)C1=O,Potency,[1],inactive
same,Potency,[6],"inconclusive: 31.6 µM [cytotoxic, partial curve, poor fit]"
same,Potency,[11],inactive
same,Potency,[10],"inconclusive: 10 µM [inhibitor, partial curve]"
Cn1c(NCCN(CCO)CCCc2ccc([N+](=O)[O-])cc2)cc(=O)n(C)c1=O,Potency,[9],inactive
same,Potency,[6],"inconclusive: 31.6 µM [rising, single point]"
same,Potency,[3],active: 7.08 µM
COc1c2occc2cc2ccc(=O)oc12,Potency,[4],"inconclusive: 3.16 µM [rising, single point]"
same,Potency,[3],"inconclusive: 35.5 µM [inhibitor, single point]"
CC(C)(Oc1ccc(C2CC2(Cl)Cl)cc1)C(=O)O (centres undefined),Potency,[4],inactive
same,Potency,[6],inactive
COc1cc2nc(N(C)CCCNC(=O)C3CCCO3)nc(N)c2cc1OC (centres undefined),Potency,[4],inactive
same,Potency,[2],inactive
same,Potency,[3],"inconclusive: 8.91 µM [inhibitor, partial curve]"
CC(=O)SC[C@@H](C)C(=O)N1CCC[C@H]1C(=O)N[C@@H](Cc1ccccc1)C(=O)O,Potency,[4],inactive
same,Potency,[6],"inconclusive: 39.8 µM [cytotoxic, partial curve, poor fit]"
same,Potency,[3],"inconclusive: 31.6 µM [inhibitor, partial curve, poor fit]"
COc1ccc(Cn2ccc3ccc(C(=O)NO)cc32)cc1,Potency,[1],inactive
same,Potency,[9],"inconclusive: 39.8 µM [cytotoxic, single point]"
same,Potency,[2],"inconclusive: 39.8 µM [cytotoxic, single point]"
same,Potency,[6],"inconclusive: 39.8 µM [cytotoxic, single point]"
same,Potency,[8],"inconclusive: 31.6 µM [cytotoxic, single point]"
CNC(=O)c1ccc2c(C(=Nc3cccc(CN(C)C)c3)c3ccccc3)c(O)[nH]c2c1,Potency,[1],inactive
same,Potency,[8],inactive
CCOc1ccccc1OCCNC(C)Cc1ccc(OC)c(S(N)(=O)=O)c1 (centres undefined),Potency,[4],inactive
same,Potency,[9],inactive
same,Potency,[6],inactive
CCN1CCN(c2ccc(Nc3cc(N(C)C(=O)Nc4c(Cl)c(OC)cc(OC)c4Cl)ncn3)cc2)CC1,Potency,[1],"inconclusive: 39.8 µM [cytotoxic, single point]"
same,Potency,[6],"inconclusive: 39.8 µM [cytotoxic, single point]"
same,Potency,[8],"inconclusive: 25.1 µM [cytotoxic, single point]"
CC(C)(O)CCc1ccc(OCc2cc(-c3cccc(OC(F)F)c3)c3ncccc3c2)cc1,Potency,[9],"inconclusive: 31.6 µM [cytotoxic, single point]"
same,Potency,[2],inactive
same,Potency,[6],"inconclusive: 31.6 µM [cytotoxic, single point]"
same,Potency,[11],inactive
N[C@@H](C(=O)N[C@@H]1C(=O)N2C(C(=O)O)=C(Cl)CS[C@H]12)c1ccccc1,"activity change, negative = cytotoxicity",[9],inactive: 1.47% [at 11.6 µM]
same,Potency,[3],"inconclusive: 0.126 µM [inhibitor, full curve]"
Cc1nnc(C(=O)NC(C)(C)c2nc(C(=O)NCc3ccc(F)cc3)c(O)c(=O)n2C)o1,Potency,[1],inactive
same,Potency,[4],inactive
same,Potency,[2],inactive
same,Potency,[6],"inconclusive: 39.8 µM [rising, single point]"
O=C(O)CCCc1c[nH]c2ccccc12,Potency,[2],inactive
same,Potency,[11],inactive
C[C@]12C=CC(=O)C=C1CC[C@@H]1[C@@H]2C(=O)C[C@@]2(C)[C@H]1CC[C@]2(O)C(=O)CO,Potency,[2],inactive
same,Potency,[3],"inconclusive: 8.91 µM [inhibitor, partial curve]"
CN(C)C(=O)c1ccc(S(=O)(=O)c2ccc(NC(=O)[C@@](C)(O)C(F)(F)F)c(Cl)c2)cc1,Potency,[5],"inconclusive: 39.8 µM [cytotoxic, partial curve, poor fit]"
same,Potency,[6],"inconclusive: 31.6 µM [cytotoxic, partial curve, poor fit]"
same,Potency,[8],inactive
NS(=O)(=O)c1cc(Cl)c(Cl)c(S(N)(=O)=O)c1,Potency,[5],inactive
same,Potency,[6],inactive
CN(C)CC(=O)N1CCC(c2ccc(NC(=O)c3ncc(C#N)[nH]3)c(C3=CCCCC3)c2)CC1,Potency,[2],"inconclusive: 39.8 µM [cytotoxic, single point]"
same,Potency,[6],inactive
same,Potency,[11],"inconclusive: 39.8 µM [cytotoxic, single point]"
C[C@@H](NC(=O)c1ncnc(N)c1Cl)c1ncc(C(=O)Nc2cc(C(F)(F)F)c(Cl)cn2)s1,Potency,[5],active: 10 µM
same,Potency,[6],"inconclusive: 17.8 µM [rising, single point]"
same,Potency,[8],"inconclusive: 31.6 µM [cytotoxic, single point]"
same,"activity change, negative = inhibition",[7]; HiBiT,inactive: -24.2%
same,"activity change, negative = inhibition",[7]; Viability,inactive: -2.15%
CC(=O)NC[C@H]1CN(c2ccc(N3CCOCC3)c(F)c2)C(=O)O1,Potency,[2],inactive
same,Potency,[8],"inconclusive: 25.1 µM [rising, single point]"
same,Potency,[3],"inconclusive: 35.5 µM [inhibitor, partial curve, poor fit]"
same,Potency,[10],inactive
CCc1nc(-c2cccc(C)c2)c(-c2ccnc(NC(=O)c3ccccc3)c2)s1,Potency,[5],"inconclusive: 11.2 µM [cytotoxic, partial curve]"
same,Potency,[6],"inconclusive: 39.8 µM [cytotoxic, single point]"
Nc1ccc(S(N)(=O)=O)cc1,Potency,[5],inactive
same,Potency,[6],"inconclusive: 31.6 µM [rising, single point]"
same,Potency,[10],inactive
CC(=O)c1c(C)c2cnc(Nc3ccc(N4CCNCC4)cn3)nc2n(C2CCCC2)c1=O,"activity change, negative = cytotoxicity",[9],inactive: -5.97% [at 6.55 µM]
same,Potency,[7]; HiBiT,"inconclusive: 31.3 µM [inhibitor, partial curve]"
same,Potency,[7]; Viability,"inconclusive: 27.9 µM [cytotoxic, single point]"
CCC(=O)O[C@]1(C(=O)CCl)[C@@H](C)C[C@H]2[C@@H]3CCC4=CC(=O)C=C[C@]4(C)[C@@]3(F)[C@@H](O)C[C@@]21C,Potency,[5],inactive
same,Potency,[2],inactive
same,Potency,[6],"inconclusive: 7.08 µM [cytotoxic, single point]"
same,Potency,[3],"inconclusive: 11.2 µM [inhibitor, partial curve]"
CC(C)(C)c1cc(NC(=O)Nc2ccc(-c3cn4c(n3)sc3cc(OCCN5CCOCC5)ccc34)cc2)no1,Potency,[5],inactive
CC1(C)O[C@H]2CC(=O)OC[C@]23[C@H]2CC[C@@]4(C)[C@H](c5ccoc5)OC(=O)[C@H]5O[C@]54[C@]2(C)C(=O)C[C@@H]13,Potency,[2],inactive
same,Potency,[11],inactive
same,Potency,[3],inactive
CCOc1cc(N)c(Cl)cc1C(=O)NCC1CN(Cc2ccc(F)cc2)CCO1 (centres undefined),Potency,[5],"inconclusive: 31.6 µM [cytotoxic, single point]"
same,Potency,[2],"inconclusive: 1.26 µM [cytotoxic, partial curve, poor fit]"
same,Potency,[3],active: 11.2 µM
same,Potency,[10],inactive
CN(C)CCCNC(=O)c1ccc(-c2cc(O)c3ncccc3c2)cc1,Potency,[5],"inconclusive: 39.8 µM [cytotoxic, single point]"
same,Potency,[2],"inconclusive: 35.5 µM [cytotoxic, single point]"
same,Potency,[8],"inconclusive: 31.6 µM [cytotoxic, single point]"
same,Potency,[11],"inconclusive: 39.8 µM [cytotoxic, single point]"
